{
  "source": "PubChem BioAssay AID485344",
  "about": "(National Center for Advancing Translational Sciences (NCATS), 2010)",
  "note": "About 6,900 (2%) of roughly 340,000 compounds were called active. No stated cut-off is given here; in the data, active means inhibition above about 30%; inactive means below that, where a call was filed. The list shows a part of the results, in another mix than the full data. The source gives no active or inactive call for entries shown without one.",
  "data": [
    {"target": "D(2) dopamine receptor (Homo sapiens) (UniProt P14416)", "sequence (P14416 whole entry, looked up)": "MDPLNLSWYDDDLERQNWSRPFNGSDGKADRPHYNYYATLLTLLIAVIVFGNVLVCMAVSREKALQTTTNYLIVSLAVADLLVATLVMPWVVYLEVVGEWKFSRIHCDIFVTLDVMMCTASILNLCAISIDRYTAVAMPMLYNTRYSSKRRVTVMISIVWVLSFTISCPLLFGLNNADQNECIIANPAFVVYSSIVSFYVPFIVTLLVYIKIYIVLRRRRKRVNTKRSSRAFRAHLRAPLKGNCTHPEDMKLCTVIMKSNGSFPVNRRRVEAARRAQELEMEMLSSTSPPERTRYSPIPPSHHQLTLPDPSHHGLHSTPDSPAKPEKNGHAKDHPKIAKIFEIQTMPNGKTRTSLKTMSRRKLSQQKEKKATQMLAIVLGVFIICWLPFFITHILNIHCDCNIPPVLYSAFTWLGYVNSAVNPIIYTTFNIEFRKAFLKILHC", "assay": "HTS Assay for Allosteric Antagonists of the Human D2 Dopamine Receptor: Primary Screen for Antagonists; further: 0% is about no effect", "settings": "HEK293 TREx D2 cells, calcium flux, dopamine EC80; at 10 µM; stronger effect = higher value", "how_it_was_run": "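In this primary screen, negative modulation is detected by tracking calcium flux after an EC80 dopamine challenge in inducible HEK293 T-REx D2 cells preexposed to test compound for 180 s.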", "values": [
      {"smiles": "COc1ccccc1NC(=O)c1sc2nc(-c3cc4ccccc4oc3=O)[nH]c(=O)c2c1C", "inhibition": "-12.7%"},
      {"smiles": "O=C(CCN1CCN(c2ccccc2)CC1)N/N=C/c1ccc([N+](=O)[O-])o1", "inhibition": "active: 69.9%"},
      {"smiles": "Cc1cc(C)cc(NC(=O)c2cccc(N3CCCS3(=O)=O)c2)c1", "inhibition": "2.11%"},
      {"smiles": "O=S(=O)(Nc1ccccn1)c1ccc(Cl)c2ccccc12", "inhibition": "active: 30.6%"},
      {"smiles": "Cc1ccc(/C=C/c2onc(C)c2S(=O)(=O)N2CCC(C(=O)NCc3ccc(N(C)C)cc3)CC2)cc1", "inhibition": "12.8%"},
      {"smiles": "CCCCS(=O)CC(O)CSc1nc(-c2ccc(OC)cc2)cc(-c2ccccc2)c1C#N", "note": "(stereo not given)", "inhibition": "3.54%"},
      {"smiles": "Fc1ccccc1N1CCN(c2c3c(nc4nncn24)CCC3)CC1", "inhibition": "3.3%"},
      {"smiles": "CCC(Sc1nnc(-c2ccc(OC)cc2)c(-c2ccc(OC)cc2)n1)C(=O)Nc1cccc(OC)c1", "note": "(stereo not given)", "inhibition": "9.44%"},
      {"smiles": "Cc1ccc(OCCCC(=O)Nc2sc3c(c2C(N)=O)CCCC3)cc1", "inhibition": "1.2%"},
      {"smiles": "Cn1ncc2c(N3CCN(c4ccccc4Cl)CC3)ncnc21", "inhibition": "17.1%"},
      {"smiles": "CCCCN(C)C(=O)Cn1ncc2c([nH]c3ccc(C)cc32)c1=O", "inhibition": "6.31%"},
      {"smiles": "CCOc1ccccc1NC(=O)CCNS(=O)(=O)c1ccc2c(c1)CCN2C(=O)C1CC1", "inhibition": "-20.3%"},
      {"smiles": "CCOC(=O)C1CCCN(CCSc2ccc(C)cc2)C1", "note": "(stereo not given)", "inhibition": "active: 43.5%"},
      {"smiles": "CCC1CN(C(=O)N2CCC(C(=O)N(C)Cc3ccccc3)CC2)c2ccccc2O1", "note": "(stereo not given)", "inhibition": "-8.11%"},
      {"smiles": "Cc1ccc2nc(CN3CCN(C(=O)Nc4cccc(C)c4C)CC3)oc2c1", "inhibition": "0.395%"},
      {"smiles": "Cc1ccc(CNC(=O)c2cc(S(=O)(=O)N3CCCCC3)cn2C)cc1", "inhibition": "-1.15%"},
      {"smiles": "COC(=O)c1scc(-c2ccc(C)cc2)c1S(=O)(=O)Nc1c(C)cc(C)cc1C", "inhibition": "-0.338%"},
      {"smiles": "COc1ccc(NC(=O)CN2C(=O)CC(c3ccco3)Sc3ccccc32)cc1OC", "note": "(stereo not given)", "inhibition": "-7.05%"},
      {"smiles": "CCS(=O)(=O)c1ncc(N(Cc2cccc(F)c2)Cc2ccco2)c(C(=O)Nc2ccccc2Cl)n1", "inhibition": "18.7%"},
      {"smiles": "CCOC(=O)c1cccc(NC(=O)c2cnn(-c3ccccc3)c2-n2cccc2)c1", "inhibition": "16.4%"},
      {"smiles": "CC(=O)N1c2ccccc2C(=O)C1N1CCN(c2cc(Cl)ccc2C)CC1", "note": "(stereo not given)", "inhibition": "11%"},
      {"smiles": "CC(=O)c1ccc(N2CCN(S(=O)(=O)c3ccc4[nH]c5c(c4c3)CCCCC5)CC2)cc1", "inhibition": "-3.73%"},
      {"smiles": "CCC1CN(C(=O)Nc2ccccc2C(F)(F)F)c2ccccc2S1", "note": "(stereo not given)", "inhibition": "-2.49%"},
      {"smiles": "COc1ccc(-c2cc(C(F)(F)F)n3nc(C(=O)Nc4sc5c(c4C#N)CCC(C)C5)cc3n2)cc1OC", "note": "(stereo not given)", "inhibition": "-13.2%"},
      {"smiles": "CCC(C)NC(=O)c1[nH]c2cc(OC)ccc2c1Sc1ccc(C)cc1", "note": "(stereo not given)", "inhibition": "28%"},
      {"smiles": "CCOC(=O)C1CCN(C(=O)c2cc3ccc4ccc(C)[nH]c4c3n2)CC1", "inhibition": "-0.773%"},
      {"smiles": "Cc1ccc(-n2ncc(C(=O)NCCCN3CCc4ccccc4C3)c2C2CCN(C(=O)OC(C)(C)C)CC2)cc1C", "inhibition": "11.9%"},
      {"smiles": "COc1ccc2c(c1)c1c(c(=O)n(Cc3ccccc3)c(=O)n1Cc1ccc(C)cc1)n2C", "inhibition": "8.04%"},
      {"smiles": "CC(CNC(=O)CN1C(=O)COc2ccc(S(=O)(=O)N3CCCCC3)cc21)c1ccccc1", "note": "(stereo not given)", "inhibition": "-1.54%"},
      {"smiles": "O=C(Nc1ccc(Cl)cc1)C1CCN(S(=O)(=O)c2ccc(Br)s2)CC1", "inhibition": "2.03%"},
      {"smiles": "Cc1ccccc1C(=O)Nc1ccc(C(=O)OCc2cc(=O)n3nc(C4CC4)sc3n2)cc1", "inhibition": "-1.93%"},
      {"smiles": "CC1CN(C(=O)Nc2ccc(C(=O)NCCc3ccccc3Cl)cc2)c2ccccc2S1", "note": "(stereo not given)", "inhibition": "8.43%"},
      {"smiles": "Cc1oc2cc3oc(=O)c(CCC(=O)NCCCC(=O)O)c(C)c3cc2c1C", "inhibition": "active: 33.3%"},
      {"smiles": "O=C(Nc1ccc2c(c1)OCO2)C1CCN(Cc2cc3c(cc2O)OCO3)CC1", "inhibition": "active: 35%"},
      {"smiles": "COc1ccc(NC(=O)c2cc(S(=O)(=O)N3CCCCC3)c[nH]2)cc1Cl", "inhibition": "9.7%"},
      {"smiles": "Cc1ccc(Cl)cc1NC(=O)c1cnn2c(C(F)F)cc(-c3ccccc3)nc12", "inhibition": "2.03%"},
      {"smiles": "Cc1ccc(NC(=O)c2c(C)oc3ccc(O)c(CN4CCCCC4)c23)cc1", "inhibition": "3.17%"},
      {"smiles": "COC(=O)c1c(NC(=O)C(C)Oc2ccc(Cl)cc2Cl)sc2c1CCCC2", "note": "(stereo not given)", "inhibition": "7.25%"},
      {"smiles": "Cc1cc(C)c(/C=C/c2onc(C)c2S(=O)(=O)N2CCC(C(=O)NCC(C)c3ccccc3)CC2)c(C)c1", "note": "(stereo not given)", "inhibition": "9.11%"},
      {"smiles": "Cc1cc(NC(=O)CC(C)C)cc(-c2nc3ncccc3o2)c1O", "inhibition": "-6.36%"},
      {"smiles": "CC1CCN(C(=O)c2ccccc2NC(=O)c2nsc3ccccc23)CC1", "inhibition": "15.4%"},
      {"smiles": "CCc1cccc(NC(=O)C2CCCN2S(=O)(=O)c2ccc3c(c2)n(C)c(=O)c(=O)n3C)c1", "note": "(stereo not given)", "inhibition": "18.6%"},
      {"smiles": "COc1ccc(-n2c(SCC(=O)Nc3cc(C)cc(C)c3)nc3c(oc4ccccc43)c2=O)cc1", "inhibition": "2.91%"},
      {"smiles": "O=C(COC(=O)/C=C/c1cccc(C(F)(F)F)c1)NCc1ccccc1", "inhibition": "active: 33%"},
      {"smiles": "CCOc1ccc(-c2cc(NC(=O)c3c(F)cccc3F)c(C(=O)OC)s2)cc1", "inhibition": "0.79%"},
      {"smiles": "O=C(c1cc2c(s1)-c1ccccc1OC2)N1CCc2ccccc2C1", "inhibition": "active: 33.1%"},
      {"smiles": "COc1ccc(CNC(=O)CCc2c(C)nn(-c3ccc(N4CCCC4)nn3)c2C)c(OC)c1", "inhibition": "3.8%"},
      {"smiles": "COc1ccccc1N1CCN(C(=O)c2nc(-c3ccc(C)cc3)n3c2CCCCC3)CC1", "inhibition": "-10.1%"},
      {"smiles": "COc1ccc(-c2ccc3c(N)c(C(=O)Nc4ccc(C)cc4C)sc3n2)cc1OC", "inhibition": "-8.75%"},
      {"smiles": "CC(C)c1nc2ccc(C(=O)NCc3ccc(F)cc3)cc2o1", "inhibition": "-9.33%"},
      {"smiles": "COc1ccc(S(=O)(=O)NCC(c2ccco2)N2CCN(c3ccccc3F)CC2)cc1OC", "note": "(stereo not given)", "inhibition": "-4.89%"},
      {"smiles": "Cc1n[nH]c(=O)c2c1nnn2Cc1ccccc1Cl", "inhibition": "active: 57.7%"},
      {"smiles": "COc1ccc(C(=O)c2oc3ccccc3c2NC(=O)COc2cccc(C)c2)cc1", "inhibition": "-24.6%"},
      {"smiles": "CCN(CC)CCNC(=O)c1ccc2c(c1)NC(=O)C(CS(=O)(=O)Cc1ccc(F)cc1Cl)N2", "note": "(stereo not given)", "inhibition": "6.58%"},
      {"smiles": "CCn1cc(C(=O)NCCCN2CCC(C)CC2)c(=O)c2cc(S(=O)(=O)N(C)C3CCCCC3)ccc21", "inhibition": "15.8%"},
      {"smiles": "Cc1nn(C)c2c1c(-c1ccccc1)cc(=O)n2C(C)C(=O)NCCc1ccc(Cl)cc1", "note": "(stereo not given)", "inhibition": "-4.2%"},
      {"smiles": "Cc1ccc2[nH]c(CSc3nnc(NC(=O)COc4ccccc4C)s3)cc(=O)c2c1", "inhibition": "16.5%"},
      {"smiles": "CCCOCc1cc(CN2CCN(c3cccc(Cl)c3)CC2)c(O)c2ncccc12", "inhibition": "4.81%"},
      {"smiles": "Cc1cccc(C)c1NC(=O)c1c(C)oc2c1C1=NCCN1C=N2", "inhibition": "-22.4%"},
      {"smiles": "COc1ccc(Nc2cc(C(=O)NCCCN(C)c3ccccc3)c3ccccc3n2)c(OC)c1", "inhibition": "3.61%"}
    ]}
  ]
}
